# Measurements taken from PubChem BioAssay AID1477 (National Center for Advancing Translational Sciences (NCATS), 2009).
# The whole screen tested about 230,000 compounds, of which fewer than 10 were called active. The shares of active, inactive and inconclusive entries below differ from those in the screen. The call rests on the fitted dose curve; in most records, active means well fitted curve in the direction sought with a large enough effect; inconclusive means small, poorly fitted or top-dose-only effect, or effect the other way, or another doubt; inactive means no such curve, though single readings can be large or run the other way. No potency is given beside an inconclusive call; the fits are too rough.
# Biological target: Runt-related transcription factor 1 (Homo sapiens) + Core-binding factor subunit beta (Homo sapiens) (UniProt Q01196+Q13951)
# UniProt Q01196, sequence (Q01196 whole entry, looked up): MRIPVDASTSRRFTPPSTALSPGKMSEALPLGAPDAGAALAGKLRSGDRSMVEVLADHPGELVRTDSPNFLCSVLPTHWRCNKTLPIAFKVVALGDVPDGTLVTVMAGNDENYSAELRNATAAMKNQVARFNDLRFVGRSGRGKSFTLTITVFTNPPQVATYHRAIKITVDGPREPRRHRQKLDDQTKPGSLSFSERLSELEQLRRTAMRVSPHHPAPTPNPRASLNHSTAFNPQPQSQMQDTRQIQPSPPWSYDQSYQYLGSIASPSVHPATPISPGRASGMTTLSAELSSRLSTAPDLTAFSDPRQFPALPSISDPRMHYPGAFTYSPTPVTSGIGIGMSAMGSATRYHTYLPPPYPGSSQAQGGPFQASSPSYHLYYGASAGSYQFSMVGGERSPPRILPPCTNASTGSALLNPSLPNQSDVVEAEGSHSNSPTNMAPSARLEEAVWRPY
# UniProt Q01196, sequence (Q13951 whole entry, looked up): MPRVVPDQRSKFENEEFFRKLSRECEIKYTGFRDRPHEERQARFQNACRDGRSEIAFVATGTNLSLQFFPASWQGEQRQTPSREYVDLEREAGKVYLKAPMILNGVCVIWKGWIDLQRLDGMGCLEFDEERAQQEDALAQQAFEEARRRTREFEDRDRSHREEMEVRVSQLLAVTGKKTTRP
# Assay: qHTS Assay for Compounds Blocking the Interaction Between CBF-beta and RUNX1 for the Treatment of Acute Myeloid Leukemia; on activity, negative = inhibition: % of control where 0% means no effect
# Conditions: AlphaScreen CBFb-His/RUNX1-biotin binding, biochemical; activity, negative = inhibition: at 59.8 µM (top of the series) unless noted
# Outline: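 CBF-beta (His) and RUNX1 (biotin), 30 nM each; 20 min preassociation; + compound, 15 min; + beads 50 ng each (Ni, streptavidin), 90 min; RT; AlphaScreen read.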
Structure (SMILES),Potency,"activity, negative = inhibition"
S=C(Nc1ccc2nsnc2c1)N1CCCC1,"inconclusive [activator, single point]",–
Cc1ccc(SCCNC(=O)c2ccc(C)c(S(=O)(=O)Nc3ccccc3C)c2)cc1,–,inactive: 3.2%
CC(C)n1cc(/C=C2/NC(=O)NC2=O)c2ccccc21,"inconclusive [inhibitor, partial curve]",–
Cc1ccc2c(c1)N(C(=O)CSc1nncn1C)C(C)(C)c1ssc(=S)c1-2,"inconclusive [inhibitor, partial curve]",–
Oc1ccc(/C=N/N=C(c2ccccc2)c2ccccc2)c(O)c1O,"inconclusive [inhibitor, partial curve]",–
COc1ccc(-c2noc(CSc3ccccc3)n2)cc1OC,"inconclusive [activator, single point]",–
CC1=CC(C)(C)NC(=S)N1c1cccc2cc(S(=O)(=O)O)ccc12,–,inactive: -4.94%
O=C(NCc1ccccn1)c1ccc2c(=O)n(CCc3ccccc3)c(=O)[nH]c2c1,"inconclusive [activator, single point]",–
O=C(CSc1nnc(CCCN2C(=O)c3cccc4cccc(c34)C2=O)n1-c1ccccc1)NCCCN1CCOCC1,"inconclusive [inhibitor, single point]",–
Cc1ccc(Sc2ccc(NC(=O)CCl)cc2)c(C)c1,–,inactive: -2.88%
O=c1oc(-c2cccnc2)nc2ccccc12,–,inactive: 4.2%
Cc1cc(Cl)cc(C)c1OCCCCN1CCOCC1,–,inactive: 4.14%
c1cncc(N=c2scc(-c3cccc4ccccc34)n2CCCn2ccnc2)c1,"inconclusive [inhibitor, single point]",–
Cc1ccc(S(=O)(=O)N2CCN(C(=O)c3cccs3)CC2)c(C)c1,"inconclusive [activator, single point]",–
CC(C)NC(=O)c1onc(CSc2ccc(Cl)cc2)c1C(=O)NC(C)C,"inconclusive [activator, single point]",–
C/C(=N\NC(=O)Cc1cccn1C)c1cccs1,"inconclusive [inhibitor, single point]",–
NS(=O)(=O)c1cccc(NC(=O)/C=C/c2cccs2)c1,–,inactive: 2.68%
Cc1ccccc1CSCC(=O)Nc1ccccc1-c1ccccc1,"inconclusive [activator, single point]",–
c1ccc(N2CCN(c3ncnc4scc(-c5cccs5)c34)CC2)cc1,–,inactive: 12.3%
O=C(CN1CCN(c2ccc(O)cc2)CC1)Nc1cc(S(=O)(=O)N2CCOCC2)ccc1Cl,"inconclusive [inhibitor, single point]",–
Cn1cccc1/C=C1/C(=O)NC(=O)N(Cc2ccccc2)C1=O,"inconclusive [inhibitor, single point]",–
O=C(Nc1ccc(N2CCCC2)c(Cl)c1)c1ccc(Br)o1,"inconclusive [inhibitor, single point]",–

Structure (SMILES),Potency,"activity, negative = inhibition"
Cc1ccc(S(=O)(=O)N2CCC(C)CC2)cc1[N+](=O)[O-],–,inactive: -5.6%
CCOC(=O)C1=NN(c2ccccc2)C2(S1)SC(C(C)=O)=C(C)N2c1ccccc1 (centres undefined),"inconclusive [inhibitor, single point]",–
NC(=S)Nc1ccccc1Br,"inconclusive [activator, single point]",–
CC(/C=C1\SC(=S)N(NC(=O)c2ccccc2C)C1=O)=C\c1ccccc1,"inconclusive [inhibitor, partial curve]",–
Cc1ccc(CSc2nnc(SCC(=O)N/N=C/C=C/c3ccco3)s2)cc1,"inconclusive [inhibitor, single point]",–
COc1ccc(-c2noc(CCc3ccccc3)n2)cc1,"inconclusive [activator, single point]",–
COc1ccc(C2NCCc3c2[nH]c2ccccc32)cc1CSc1nc2ccccc2s1 (centres undefined),"inconclusive [inhibitor, single point]",–
O=C1C2C3C=CC(C4CC34)C2C(=O)N1Cc1ccccc1 (centres undefined),–,inactive: 1.02%
COc1cc2c(cc1NCc1ccc3c(c1)OCO3)oc1ccccc12,"inconclusive [inhibitor, single point]",–
Cc1cc(=S)nc(-c2ccccn2)[nH]1,"inconclusive [inhibitor, single point]",–
Cc1cc(C)cc(NC(=S)N2CCN(Cc3ccccc3)CC2)c1,–,inactive: 0.493%
COC(=O)c1ccccc1NC(=O)c1ccccc1N(C)S(=O)(=O)c1ccccc1,–,inactive: 3.99%
COc1ccccc1C(=O)Nc1cccc(Oc2c(F)c(F)c(F)c(F)c2F)c1,"inconclusive [activator, partial curve]",–
CC[C@@H]1/C=C/C=C/C[C@H](C)[C@@H](O)[C@](C)(O)C(=O)[C@H](C)[C@@H](O)[C@H](C)C(=O)[C@H](C)[C@@H](O)[C@H](C)/C=C/C(=O)O[C@H]2[C@@H](C)[C@@H](CC1)O[C@@]1(CC[C@@H](C)[C@@H](C[C@H](C)O)O1)[C@@H]2C,"inconclusive [inhibitor, single point]",–
Cc1ccc2[nH]c(=O)c(C3C(C#N)=C(N)Oc4c3ccc3cccnc43)cc2c1 (centres undefined),"inconclusive [inhibitor, partial curve]",–
O=C1CC(=C(c2ccccc2)c2ccccc2)C(=O)N1CCN1CCN(c2cccc(Cl)c2)CC1,–,inactive: -22.9%
O=C(COC(=O)C1CCC1)NCc1ccccc1Cl,–,inactive: -5.38%
O=C(Nc1sc2c(c1C(=O)NCC1CCCO1)CCCC2)c1cccs1 (centres undefined),"inconclusive [activator, partial curve]",–
Cc1cccc(-c2noc(CSc3ccccc3)n2)c1,"inconclusive [activator, single point]",–
Cc1[nH]c2ccc(C(=O)O)cc2c1C,"inconclusive [inhibitor, single point]",–
Brc1ccc(CSc2nccn2-c2ccccc2)cc1,"inconclusive [inhibitor, partial curve]",–
Cc1cccc(-n2c(SCc3ccc(C#N)cc3)nnc2-c2c[nH]c3ccccc23)c1,"inconclusive [inhibitor, single point]",–
